Data published in the supplement of paper PMC4604168 (melanoma cell lines).
This is one part of the list. Many values rest on one well or one pass, so single values are uncertain.

Columns and labels:
Assay in all cases: cell count relative to DMSO control; melanoma cells; higher = more viable cells
Details in all cases: library dose: low library concentration; 72 h
WM115 = system: WM115
WM1716 = system: WM1716
WM1745 = system: WM1745
WM3526 = system: WM3526
WM3619 = system: WM3619
WM451Lu = system: WM451Lu
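Note: cell number obtained by counting DAPI-stained nuclei in high-throughput microscope images with image analysis software, screen run in 1,536-well plates.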

| SMILES | cell count (WM115) [%] | cell count (WM1716) [%] | cell count (WM1745) [%] | cell count (WM3526) [%] | cell count (WM3619) [%] | cell count (WM451Lu) [%] |
| --- | --- | --- | --- | --- | --- | --- |
| Cc1cn(-c2cc(NC(=O)c3ccc(C)c(Nc4nccc(-c5cccnc5)n4)c3)cc(C(F)(F)F)c2)cn1 [nilotinib] + CCN(CC)CCCCNc1ncc2cc(-c3cc(OC)cc(OC)c3)c(NC(=O)NC(C)(C)C)nc2n1 [PD173074] (first compound 0.2 µM, partner dose 0.1 µM) | 110 | 101 | 89.7 | 128 | 127 | 114 |
| CC(C)C[C@H](NC(=O)[C@H](Cc1ccccc1)NC(=O)c1cnccn1)B(O)O [Bortezomib] + COc1cc(N2CCC(N3CCN(C)CC3)CC2)ccc1Nc1ncc(Cl)c(Nc2ccccc2S(=O)(=O)C(C)C)n1 [NVP-TAE684] (first compound 0.001 µM, partner dose 0.08 µM) | 98.8 | 47.1 | 61.8 | 61.5 | 28.4 | 85.2 |
| Cc1cn(-c2cc(NC(=O)c3ccc(C)c(Nc4nccc(-c5cccnc5)n4)c3)cc(C(F)(F)F)c2)cn1 [nilotinib] + NCC(=O)Nc1ccc(-n2nc(C(F)(F)F)cc2-c2ccc3c(ccc4ccccc43)c2)cc1 [OSU03012] (first compound 0.2 µM, partner dose 1 µM) | 84.5 | 97.5 | 71.8 | 60.9 | 118 | 59.1 |
| Cn1c(=O)n(-c2ccc(C(C)(C)C#N)cc2)c2c3cc(-c4cnc5ccccc5c4)ccc3ncc21 + Oc1cc(-c2nc(-c3ccccc3)[nH]c2-c2ccncc2)ccc1Cl [L779450] (first compound 0.004 µM, partner dose 0.2 µM) | 62.4 | 80.9 | 83 | 82.2 | 80.1 | 123 |
